Experimental data published in the supplement of paper PMC10126150.
Values marked as one replicate rest on one cluster of the flow cell; about a third of the high ones do not repeat.

System: ATP
Assay: switch fluorescence ratio, 500 uM ATP over buffer (Cy3 cluster intensity, sum of 5 cycles each) (fold (ratio)); higher = stronger signal-on switching upon ATP binding; sequences stand for … in TCGTCGGCAGCGTCAGATGTGTATAAGAGACAGTTTTTTTTTTTTTTTTTTTTTTTTT…TC
Conditions: aptamer strand: ATP DNA aptamer (quencher-CACCTGGGGGAGTATTGCGGAGGAAGG + anchor), 100 nM annealed; ATP concentration: 500 uM; one replicate
Summary of the method: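 Clusters carrying Cy3-labelled switching strands on a modified Illumina MiSeq flow-cell were annealed to 100 nM quencher-labelled ATP aptamer and imaged in selection buffer. They were imaged again after 15 min with 500 uM ATP at 22 °C, over five buffer/ATP cycles with NaOH stripping and re-annealing in between. For each cluster, the fluorescence ratio is the summed Cy3 intensity of the target cycles divided by that of the buffer cycles, averaged per switch-domain sequence. Clusters outside 100-1000 RFU were left out.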
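Note: ATP exposure 15 min at 22 °C before imaging.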

Row | Sequence | switch fluorescence ratio
1 | CGCGGTTAAT | 1.01
2 | AAGCAAAGGC | 1.14
3 | GTTGTTGTGT | 1
4 | TGGATAAGG | 0.965
5 | AGCGGTTATG | 0.963
6 | GGTTGTCTGG | 0.995
7 | CATAGATACT | 1.02
8 | ACGGTACGGT | 1.16
9 | CAAAGTAAGT | 0.969
10 | ACCTGTTATT | 1.02
11 | TCATTATGAT | 1.01
12 | TTTGAAATGC | 0.994
13 | TACACGAACG | 1.34
14 | TTGCTTTTGA | 1
15 | AGCTTGCGG | 1.09
16 | TGGCGGTTCG | 1.02
17 | ACGGGGAATA | 1.09
18 | ACTGGATCT | 0.998
19 | ACGACCATCT | 1.15
20 | CAGAGCATCG | 0.986
21 | GAATTATGTA | 0.931
22 | TCCTAAATTT | 0.992
23 | TCCTCTGAGT | 1.44
24 | GGATTGCCAA | 0.963
25 | GATGCCCTCG | 1
26 | CCAGCGGAAT | 1.06

Row | Sequence | switch fluorescence ratio
27 | TAAGAGACAG | 1.01
28 | TTGCCCACTG | 1.08
29 | CCTAAGTAAT | 2.28
30 | AGTTAAATAA | 1.03
31 | TTGCATAACC | 1.04
32 | ACTAGCGACA | 1.01
33 | GAAAGATCGT | 1
34 | CAGGATATAA | 1.04
35 | GGAAGTCGC | 1
36 | AATGTAGTGT | 0.998
37 | CGAATGGCTG | 0.989
38 | CTGTTTTTAC | 1.04
39 | TCGAAGCTAG | 1.53
40 | TACTGAGAAT | 1.06
41 | TATTATTAAC | 1.03
42 | TCTTGTTGTG | 0.988
43 | TGCCTGTTAC | 1.06
44 | ATTGTATCTA | 0.989
45 | TGCATATTGG | 0.984
46 | TAAGCTGGCC | 1.1
47 | CATGTAGGTA | 0.98
48 | GCTTTTCCGT | 1.06
49 | TGAGGTCTTT | 0.984
50 | AGCATATA | 1.17
51 | ACAGCTTGGG | 0.909
52 | GCATAAGAGC | 1

Row | Sequence | switch fluorescence ratio
53 | CATATGGACT | 1.01
54 | AAATTGTAGA | 1
55 | GGTTGATTAC | 1.01
56 | AGAAGCCACA | 1.06
57 | CAATTTCTAC | 0.99
58 | GGACCAACGT | 1.27
59 | AGTGCCATCC | 1.1
60 | AGGTGGAAAG | 1.01
61 | GGTCCACCCG | 1.01
62 | TCAATTTATG | 1
63 | AGGGAAGGCT | 1.05
64 | AACAGCTCTT | 1.05
65 | TCCGAATGCT | 2.38
66 | TAGTTATAGT | 0.967
67 | CGATTAATTA | 0.996
68 | CAGGCAAGGT | 1.03
69 | TTGGCGCCGC | 0.963
70 | GACTGGCCGT | 1.03
71 | AACGTCACCA | 1.54
72 | ATTCTTGTGT | 0.977
73 | GCGGACACTA | 1.03
74 | CCTGCGGTGG | 1.02
75 | CCAGCACCCG | 1.11
76 | ACATTAGGGC | 1.02
77 | ACTCAGAAGT | 1.04
78 | GCGTTGGAGG | 0.994

Row | Sequence | switch fluorescence ratio
79 | TTTACATTCA | 1.02
80 | GGGCAGGCTC | 1.02
81 | AGGAAATGGA | 1.03
82 | TAGTTCTTCT | 1.02
83 | CAGTGACGGG | 1
84 | TGGTCAATCT | 1.07
85 | GGAATAGAGG | 0.965
86 | AATATATAGG | 1.02
87 | ATTTTTGCGG | 0.984
88 | GCGTGCTTTT | 1.06
89 | GTTCGTAGTC | 0.945
90 | TGGGATATGA | 0.973
91 | GTCGATACTG | 1.09
92 | TTCCTGGGTG | 2.03
93 | GACCCTCATT | 0.974
94 | ATACCAGAAG | 0.985
95 | GTTATTCTGA | 0.95
96 | AGCTCGTAAT | 1.05
97 | CGCTCGGAGC | 1.09
98 | CAACCGCCGA | 1.39
99 | TTGAAAGAAG | 1
100 | TCCATGCTG | 1.04
101 | GAAGACTGAG | 0.979
102 | AAAATAAAGC | 0.97
103 | GTTGAACGTA | 1.04
104 | TAGTGTGTAG | 0.977

Row | Sequence | switch fluorescence ratio
105 | TGTTAATTGC | 0.986
106 | AGGAAATTGG | 0.972
107 | GGCCATGGCG | 1.01
108 | AGGAATGTTG | 0.986
109 | TCACAGTTTC | 1.03
110 | TAGTTCAAGT | 1.01
111 | TTCCCAAAG | 1.13
112 | AAAAGTACAA | 1.13
113 | CGTGTTATGT | 0.996
114 | ATTCCAGTGG | 0.989
115 | GGTGCATTAC | 6.43
116 | ATTGGCAAGA | 0.975
117 | GGGAGCAGCG | 1.01
118 | ATGTGGGTTC | 1.04
119 | AGCATATTGA | 1.02
120 | TAGGTGGC | 1.01
121 | AAGATTACCC | 1.06
122 | CGGGATTCCA | 1.02
123 | GCGATAATAT | 0.989
124 | ATCTTGGGT | 1.01
125 | TCGATAGGCG | 1.01
126 | ATTTTACTCA | 0.998
127 | GCATAAAGAT | 1.01
128 | CTATTCCAGT | 1.03
129 | TTGGTACCTT | 2.18
130 | ACGATTGGCG | 1.04

Row | Sequence | switch fluorescence ratio
131 | CATACTAGAG | 1.01
132 | TTTGTGACGC | 1.03
133 | GACGGGAAG | 1.03
134 | CATCAGGCAG | 1.31
135 | TACATTCGGT | 1
136 | TAGCTCGAA | 1.03
137 | CGGAGGACTT | 1.03
138 | AATGGGCATC | 1.02
139 | TGACGTGTG | 1.02
140 | CGACGGGGAC | 4.35
141 | AGTTATAGG | 1.01
142 | GACGAGAAGA | 1.1
143 | CAACCAAGGG | 1.05
144 | CGGTGATGAG | 1.04
145 | GCACTAAGCT | 1.04
146 | GTTTACATAC | 1.23
147 | CGGTTAATAG | 1.08
148 | AGTCTATGCC | 1.05
149 | CAAGGGAGCC | 1.03
150 | AGCTATAAGT | 0.996
151 | TCGTTCCCTC | 1.05
152 | TGGTGGTGCT | 1.02
153 | CGTCGTAGC | 1.08
154 | TGTCACTGAG | 1.09
155 | TTCACCGTCA | 1.12
156 | CCAGAGATG | 1.03

Row | Sequence | switch fluorescence ratio
157 | CTCAAAACGT | 1.04
158 | AGCAGCTGTT | 0.986
159 | TACTCTCCGT | 1.17
160 | ATTTTCAAGT | 0.973
161 | TAGGGTCGGC | 0.975
162 | ACATGTGGTA | 1.02
163 | TTATTGTTCG | 0.937
164 | TGGCTCCCAC | 1.32
165 | AATGGGTAGG | 0.98
166 | ACAGCGTATG | 1
167 | GTTCATCTAG | 0.95
168 | GTGTCGGTTG | 1.04
169 | ATTTGGGACG | 1.01
170 | TGCAGCACGA | 1.32
171 | CATGCACCCA | 1.07
172 | GACAGC | 1.31
173 | AGGGGGTGA | 1.01
174 | CCCTAAAAAA | 0.99
175 | ACAATGCGAC | 2.51
176 | GAGTATGATA | 1.02
177 | GGTGTCCTAC | 1.04
178 | AGGTGACGGA | 0.977
179 | GCAAACTGTG | 1.06
180 | AAAAAGTTTC | 0.981
181 | AGTGGGTTAT | 0.967
182 | AGTCCGTCAT | 1.02

Row | Sequence | switch fluorescence ratio
183 | GCAATCTCCC | 3.72
184 | TGTATATGTA | 1.01
185 | CATAGAAGTG | 1
186 | AATCGCTGTA | 1.04
187 | TGGCCAAGG | 0.962
188 | ATGCCGCACG | 1.05
189 | GTAGTGAGG | 1.02
190 | AAACAGGTGT | 1.92
191 | CGATGGGTTG | 0.967
192 | TTGCAAGTA | 0.989
193 | TTTGATCGTG | 1.01
194 | TCTTTATCCT | 1.04
195 | AAGTCTAGTC | 1.03
196 | AAAATCTTGC | 1.23
197 | GAATAAGCAC | 1.29
198 | GGGCTAGCTA | 0.993
199 | GGTACGTGGA | 1.01
200 | AATTGAGGGG | 1.01
201 | TAGATCGGGA | 1.01
